In article PMC4637316:
Results are given in words; binding and its absence hold for the method and conditions named. Binding seen in cells or lysates may run through a third protein. Some binding calls cover weakened binding; strength is not graded here.

Chains of the proteins cited; added tags and fusions are not shown. Lines headed by an entry give the natural chain unless they say otherwise; changes in a name come on top. A line that says so, or that is headed by a name, gives the form on record, which may keep a tag or linker.
UniProt P46527: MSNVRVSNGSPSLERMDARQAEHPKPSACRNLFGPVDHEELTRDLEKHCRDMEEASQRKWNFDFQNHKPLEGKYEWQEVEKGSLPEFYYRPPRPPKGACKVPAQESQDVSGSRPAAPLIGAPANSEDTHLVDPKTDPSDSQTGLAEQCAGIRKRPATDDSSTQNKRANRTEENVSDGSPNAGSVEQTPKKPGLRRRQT
Flag-p27 (VP→AA) mutant (P46527, form named): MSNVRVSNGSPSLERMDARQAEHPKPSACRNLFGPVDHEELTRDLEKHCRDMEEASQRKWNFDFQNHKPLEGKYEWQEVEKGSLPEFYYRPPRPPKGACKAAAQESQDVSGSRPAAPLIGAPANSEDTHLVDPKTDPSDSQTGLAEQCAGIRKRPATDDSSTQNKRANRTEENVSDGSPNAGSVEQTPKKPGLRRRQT
UniProt Q8NHY2: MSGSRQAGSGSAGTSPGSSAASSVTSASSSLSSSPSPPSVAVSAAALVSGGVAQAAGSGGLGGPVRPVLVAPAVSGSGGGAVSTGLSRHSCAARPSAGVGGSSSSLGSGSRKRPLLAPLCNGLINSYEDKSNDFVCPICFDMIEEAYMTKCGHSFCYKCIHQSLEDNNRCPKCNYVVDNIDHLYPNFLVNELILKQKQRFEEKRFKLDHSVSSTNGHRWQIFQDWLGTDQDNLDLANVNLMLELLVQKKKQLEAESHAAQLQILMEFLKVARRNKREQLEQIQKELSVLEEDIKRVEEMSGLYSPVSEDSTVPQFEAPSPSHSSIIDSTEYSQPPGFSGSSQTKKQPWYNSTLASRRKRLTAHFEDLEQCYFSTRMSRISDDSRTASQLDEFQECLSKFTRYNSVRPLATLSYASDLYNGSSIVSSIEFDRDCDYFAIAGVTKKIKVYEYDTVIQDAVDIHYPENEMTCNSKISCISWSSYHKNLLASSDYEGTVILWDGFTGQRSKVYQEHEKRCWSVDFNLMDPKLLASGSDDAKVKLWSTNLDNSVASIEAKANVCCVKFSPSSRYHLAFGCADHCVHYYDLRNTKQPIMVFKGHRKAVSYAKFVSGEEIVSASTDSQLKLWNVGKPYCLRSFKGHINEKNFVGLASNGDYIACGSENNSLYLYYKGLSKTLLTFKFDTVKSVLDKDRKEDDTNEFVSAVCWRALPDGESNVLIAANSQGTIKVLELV

Assays:
[1] = biological target: p27^Kip1 (endogenous in HeLa) (human (endogenous in HeLa)) (UniProt P46527); test: co-IP; Flag-COP1 constructs transfected into HeLa cells treated with MG132; IP anti-p27, IB anti-Flag
GFP-COP1 wild-type = GFP-COP1 wild-type (UniProt Q8NHY2); test: co-IP; 293T cells transfected with the indicated plasmids and treated with MG132; IP anti-GFP, IB anti-Flag
[2] = biological target: Constitutive photomorphogenic 1 (COP1) (human (endogenous in U2OS)) (UniProt Q8NHY2); test: co-IP; endogenous proteins in U2OS lysates (asynchronous, and synchronized by thymidine-nocodazole block and release); IP anti-p27 with IB anti-COP1, IP anti-COP1 with IB anti-p27

Row | Substance | binding [1] | binding (GFP-COP1 wild-type) | other results
1 | Flag-COP1 C-terminal (aa 401-731) (from UniProt Q8NHY2 401-731) (domain or fragment) | no binding |  | 
2 | Flag-p27 wt (from UniProt P46527 1-198) |  | binds | 
3 | p27^Kip1 (from UniProt P46527 1-198) |  |  | binding [2]: binds

More lines, main results first:

Row | binding [1] | binding (GFP-COP1 wild-type) | Substance | other results
4 |  | no binding | Flag-p27 (VP→AA) mutant (from UniProt P46527 1-198) | 
5 | binds |  | Flag-COP1 N-terminal (aa 1-334) (from UniProt Q8NHY2 1-334) (domain or fragment) | 
